Source: the supplement of paper PMC10126150
Values marked as one replicate rest on one cluster of the flow cell; about a third of the high ones do not repeat.

system: ATP; assay: switch fluorescence ratio, 500 uM ATP over buffer (Cy3 cluster intensity, sum of 5 cycles each) (fold (ratio)); higher = stronger signal-on switching upon ATP binding; sequences stand for … in TCGTCGGCAGCGTCAGATGTGTATAAGAGACAGTTTTTTTTTTTTTTTTTTTTTTTTT…TC; conditions: aptamer strand: ATP DNA aptamer (quencher-CACCTGGGGGAGTATTGCGGAGGAAGG + anchor), 100 nM annealed; ATP concentration: 500 uM; one replicate
Outline: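 Cy3-labelled switching-strand clusters on a modified Illumina MiSeq flow-cell were annealed to 100 nM quencher-labelled ATP aptamer and imaged first in selection buffer, then after 15 min with 500 uM ATP at 22 °C. NaOH stripping and re-annealing separated each of five buffer/ATP cycles, and clusters outside 100-1000 RFU were excluded. The fluorescence ratio sums target-cycle Cy3 intensity over buffer-cycle Cy3 intensity per cluster and averages it per switch-domain sequence.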
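Also: ATP exposure 15 min at 22 °C before imaging.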

Sequence | switch fluorescence ratio
TGAGCTCGGG | 1
TGAGCTGTGG | 0.971
TGAGGACACG | 1.06
TGAGGACCCA | 1.03
TGAGGCATCA | 1.04
TGAGGCGAAA | 1.04
TGAGGCTA | 0.97
TGAGGGAGTA | 0.939
TGAGGGTAGT | 0.985
TGAGGGTTAT | 0.974
TGAGGTTAGC | 1
TGAGGTTGCG | 1.05
TGAGGTTTA | 0.948
TGAGTATTAA | 1.02
TGAGTCTAGA | 1.01
TGAGTGGGT | 0.97
TGAGTGGTTC | 0.985
TGAGTTAAT | 0.999
TGAGTTCCTA | 1.03
TGATACGGAC | 1.56
TGATCAACTT | 1.05
TGATCCAGCT | 0.939
TGATCCATCC | 1.1
TGATCGAGAT | 1.01
TGATCGTAGC | 1.03
TGATCTGTTG | 0.964

Sequence | switch fluorescence ratio
TGATGACAA | 1.1
TGATGAGAGA | 0.975
TGATGAGCAC | 1.04
TGATGCCCCG | 1.01
TGATGCGGGG | 1
TGATGGAATG | 1.02
TGATGGATGC | 0.97
TGATGTAGCT | 1.01
TGATGTCAAA | 0.955
TGATGTGGTA | 0.956
TGATTAAAGA | 0.977
TGATTAAGCT | 1.01
TGATTAAGGT | 1.03
TGATTAAGTT | 0.966
TGATTAGTTC | 0.994
TGATTCATCT | 1.05
TGATTCCATA | 1.02
TGATTCTGGG | 0.996
TGATTGGACG | 1.02
TGATTGTG | 1.01
TGATTTTGCA | 0.987
TGATTTTT | 1.03
TGCAACTAGA | 1.01
TGCAAGCAC | 2.18
TGCAAGCCAT | 0.997
TGCAAGTCGT | 1.02

Sequence | switch fluorescence ratio
TGCAATAACA | 1.11
TGCAATTTT | 1.1
TGCACCGCTT | 1.23
TGCACCTCCT | 1.15
TGCACCTGGT | 1.01
TGCACGAGAG | 1.01
TGCACGCAAG | 1.17
TGCACGGAGC | 1.09
TGCACGTT | 1.02
TGCACTAGTG | 1.05
TGCAGAGGAT | 1.03
TGCAGATAAT | 1.02
TGCAGCAAGC | 3.98
TGCAGCAGTG | 1.1
TGCAGCCTTA | 0.986
TGCAGCTCCG | 1.04
TGCAGGCGCT | 0.986
TGCAGGCTCT | 0.982
TGCAGGTGTT | 1.47
TGCAGTTGGA | 0.999
TGCATAAAAT | 0.98
TGCATAACTA | 1.03
TGCATACGTT | 1.04
TGCATCACGC | 1.01
TGCATCAGTA | 0.99
